Usually EC50 stands for the concentration that produces a half-maximal response.

For assay [1], the target named is 3xN-VISTA-ECD-Fc (human). Kind of assay: ELISA on plate-bound VISTA-ECD-Fc.
Assay [2] has as its target T1, His-tagged recombinant mouse VISTA-ECD (Met 1 to Ala 194) (mouse, UniProt Q9D659 33-194).
T1 construct: Bought (Sino Biological); not shown: His tag
T1 sequence: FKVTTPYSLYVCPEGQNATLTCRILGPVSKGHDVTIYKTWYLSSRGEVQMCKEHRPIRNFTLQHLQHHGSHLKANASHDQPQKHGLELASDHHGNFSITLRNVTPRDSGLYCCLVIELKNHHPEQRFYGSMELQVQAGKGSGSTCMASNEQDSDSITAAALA
Kind of assay: ELISA endpoint, His-VISTA on plate, mAb at 23 µg/mL. In general terms: An ELISA detects its analyte on a solid surface through an enzyme-linked reagent.

The target of assay [3] is T2, RFQ-VISTA-ECD-Fc (human).
T2 construct: also called hVISTA ECD-Fc R54A, F62A, Q63A; human VISTA-Fc 54A62A63A
Kind of assay: ELISA, 10 ug/mL antibody on plate-bound mutant VISTA-Fc.

B1: Antibody No. 91 (antibody, human IgG1, kappa)
heavy: QVQLQESGPGLVKPSETLSLTCTVSGGSISSYYWSWIRQPPGKGLEWIGYIYYSGSTNYNPSLKSRVTISVDTSKSQFSLKLSSVTAADTAVYYCASDIPAFAFDIWGQGTMVIVSS[human IgG1 constant region not listed]
light: EIVLTQSPATLSLSPGERATLSCRASQSVSYYLAWYQQKPGQAPRLLIYDAFNRATGIPARFSGSGSGTDFTLTISSLEPEDFAVYYCQQRINWPLTFGGGTKVEIKRTVAAPSVFIFPPSDEQLKSGTASVVCLLNNFYPREAKVQWKVDNALQSGNSQESVTEQDSKDSTYSLSSTLTLSKADYEKHKVYACEVTHQGLSSPVTKSFNRGEC
notes: human IgG1 constant region in the entry; also called Ab No. 91
Regarding B1, the midpoint of the response in assay [1], the EC50, lay at 0.2 µg/mL.

B2: Antibody No. 245.1 (antibody, human IgG1, kappa)
heavy: QVQLQESGPGLVKPSETLSLTCTVSGGSISSYYWSWIRQPPGKGLEWIGYIYYSGSTNYNPSLKSRVTISVDTSKSQFSLKLSSVTAADTAVYYCARDIPAFAFDIWGQGTMVIVSSA[human IgG1 constant region not listed]
light: EIVLTQSPATLSLSPGERATLSCRASQSVSYYLAWYQQKPGQAPRLLIYDAFNRATGIPARFSGSGSGTDFTLTISSLEPEDFAVYYCQQRINWPLTFGGGTKVEIKRTVAAPSVFIFPPSDEQLKSGTASVVCLLNNFYPREAKVQWKVDNALQSGNSQESVTEQDSKDSTYSLSSTLTLSKADYEKHKVYACEVTHQGLSSPVTKSFNRGEC
notes: Human IgG1, kappa
For the molecule B2, in assay [2], the “endpoint absorbance (450 nm)” value was determined as 0.075.

B3: Antibody No. 245.1 (antibody, human IgG1, kappa)
heavy: QVQLQESGPGLVKPSETLSLTCTVSGGSISSYYWSWIRQPPGKGLEWIGYIYYSGSTNYNPSLKSRVTISVDTSKSQFSLKLSSVTAADTAVYYCARDIPAFAFDIWGQGTMVIVSSA[human IgG1 constant region not listed]
light: EIVLTQSPATLSLSPGERATLSCRASQSVSYYLAWYQQKPGQAPRLLIYDAFNRATGIPARFSGSGSGTDFTLTISSLEPEDFAVYYCQQRINWPLTFGGGTKVEIKRTVAAPSVFIFPPSDEQLKSGTASVVCLLNNFYPREAKVQWKVDNALQSGNSQESVTEQDSKDSTYSLSSTLTLSKADYEKHKVYACEVTHQGLSSPVTKSFNRGEC
As for B3, the “ELISA Abs 450 nm” value in assay [3] came out at 1.48 Abs 450 nm.

B4: Antibody No. 173.1 (antibody, human IgG1, kappa)
heavy: QLQLQESGPGLVKPSETLSLTCIVSGGSISSSGYYWGWIRQPPGKGLEWIGSIFYSGNTHYNPSLKSRVTIPVDTSKNQFSLKLSSVTAADSAVYYCARRDILTGPFDYWGQGTLVTVSSA[human IgG1 constant region not listed]
light: DIQMTQSPSSLSASVGDRVTITCQASQDITNYLTWYQQKPGNAPKLLIYDASNLETGVPSRFSGSGSGTDFTFTINSLQPEDVATYFCQQYDNLPTFGGGTKVEIKRTVAAPSVFIFPPSDEQLKSGTASVVCLLNNFYPREAKVQWKVDNALQSGNSQESVTEQDSKDSTYSLSSTLTLSKADYEKHKVYACEVTHQGLSSPVTKSFNRGEC
notes: Human IgG1, kappa
In the case of B4, the “endpoint absorbance (450 nm)” value in assay [2] turned out to be 0.079.

B5: Antibody No. 173.1 (antibody, human IgG1, kappa)
heavy: QLQLQESGPGLVKPSETLSLTCIVSGGSISSSGYYWGWIRQPPGKGLEWIGSIFYSGNTHYNPSLKSRVTIPVDTSKNQFSLKLSSVTAADSAVYYCARRDILTGPFDYWGQGTLVTVSSA[human IgG1 constant region not listed]
light: DIQMTQSPSSLSASVGDRVTITCQASQDITNYLTWYQQKPGNAPKLLIYDASNLETGVPSRFSGSGSGTDFTFTINSLQPEDVATYFCQQYDNLPTFGGGTKVEIKRTVAAPSVFIFPPSDEQLKSGTASVVCLLNNFYPREAKVQWKVDNALQSGNSQESVTEQDSKDSTYSLSSTLTLSKADYEKHKVYACEVTHQGLSSPVTKSFNRGEC
notes: human IgG1
As to B5, in assay [3], the “ELISA Abs 450 nm” value was 1.66 Abs 450 nm.

The values are drawn from patent US20240132593A1 (KINETA, published 2024).
